# Experimental data from article PMC4336329 (PLoS ONE, 2015).
# Out of some 310,000 compounds screened, about 14,000 (4.5%) showed an effect of 50% or more. Effects have a minus sign here. The list shows a part of the results.
# Molecular target: human ether-à-go-go-related gene (hERG) potassium channel (human, UniProt Q12809)
# Assay: primary screen, population patch clamp on CHO cells stably expressing hERG
# 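Note: peak tail current of the secondary pulse compared with the same well before compound.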
# Chain of human ether-à-go-go-related gene (hERG) potassium channel (Q12809 whole entry, looked up): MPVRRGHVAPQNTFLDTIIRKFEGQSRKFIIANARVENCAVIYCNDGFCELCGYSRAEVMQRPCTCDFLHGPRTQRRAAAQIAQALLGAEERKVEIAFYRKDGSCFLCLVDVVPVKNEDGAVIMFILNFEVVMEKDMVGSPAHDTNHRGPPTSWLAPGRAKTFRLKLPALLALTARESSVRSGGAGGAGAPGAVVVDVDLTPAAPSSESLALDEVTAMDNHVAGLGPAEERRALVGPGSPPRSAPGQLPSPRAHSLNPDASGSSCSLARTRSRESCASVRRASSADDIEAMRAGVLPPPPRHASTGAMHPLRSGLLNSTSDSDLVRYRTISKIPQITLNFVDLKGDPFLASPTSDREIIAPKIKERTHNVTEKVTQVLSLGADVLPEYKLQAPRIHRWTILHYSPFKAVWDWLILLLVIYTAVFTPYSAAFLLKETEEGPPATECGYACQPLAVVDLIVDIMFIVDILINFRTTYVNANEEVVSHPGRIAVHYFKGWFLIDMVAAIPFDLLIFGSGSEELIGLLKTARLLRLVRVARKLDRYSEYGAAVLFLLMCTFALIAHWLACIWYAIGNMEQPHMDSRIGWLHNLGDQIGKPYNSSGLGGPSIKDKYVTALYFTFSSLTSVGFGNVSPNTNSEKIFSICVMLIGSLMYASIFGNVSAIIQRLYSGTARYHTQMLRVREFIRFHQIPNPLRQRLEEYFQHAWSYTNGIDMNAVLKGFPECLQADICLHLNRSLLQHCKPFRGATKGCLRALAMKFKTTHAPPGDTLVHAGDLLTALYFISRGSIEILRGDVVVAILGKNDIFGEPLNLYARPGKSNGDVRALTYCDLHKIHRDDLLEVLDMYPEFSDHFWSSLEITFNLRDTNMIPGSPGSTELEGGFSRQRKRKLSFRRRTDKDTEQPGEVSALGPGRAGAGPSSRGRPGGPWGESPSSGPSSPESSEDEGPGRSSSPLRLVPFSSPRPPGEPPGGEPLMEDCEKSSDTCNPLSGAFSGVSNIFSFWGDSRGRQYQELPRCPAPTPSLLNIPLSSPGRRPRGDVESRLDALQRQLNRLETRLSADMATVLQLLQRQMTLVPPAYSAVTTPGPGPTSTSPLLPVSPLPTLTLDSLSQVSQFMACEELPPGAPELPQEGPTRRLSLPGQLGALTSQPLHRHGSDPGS
row,Structure (SMILES),"hERG current change (%, negative = inhibition) at 10uM [%]"
1,O=C(COC(=O)c1cccnc1Cl)NCCc1ccccc1,3.16
2,COc1cc(CN=C(C)c2c(O)n(C3CCCCC3)c(=O)[nH]c2=O)cc(OC)c1,15.4
3,CCOC(=O)CCCCC(=O)c1[nH]c(=O)[nH]c1CN1CCOCC1,20
4,CNc1nc(-c2ccccc2)cc(-c2ccccc2)n1,10.8
5,O=C1NN(c2cccc(Br)c2)C(=O)/C1=C/c1cccs1,12.5
6,CC(C)COc1ccc(-c2nnc(-c3ccncc3)o2)cc1,-12
7,Cc1cccc(N(CC(=O)N2CCOCC2)S(C)(=O)=O)c1C,-11
8,Oc1ccc(C[C@H]2CNCCN2CCc2cccc(F)c2)cc1,-30.4
9,O=C(O)CN1C(=O)NC2NC(=O)NC21 (centres unmarked),12.9
10,COc1ccc(CCNC(=O)CCCCC(=O)NCCc2ccc(OC)c(OC)c2)cc1OC,4.7
11,C/C(=N\Nc1nc(N)cc(Cl)n1)c1cccc([N+](=O)[O-])c1,7.11
12,O=C(O)c1ccc(/C=N/N2CCN(Cc3ccccc3)CC2)cc1,-2.12
13,Cc1nn(C)cc1C(C)NCc1c(C(=O)N2CCCCCCC2)nc2ccc(Cl)cn12 (centres unmarked),8.88
14,CCn1c(Cc2ccc(OC)cc2)nnc1SCC(=O)NC1CC1,6.39
15,NNS(=O)(=O)c1ccc(Sc2ccccn2)c([N+](=O)[O-])c1,11.3
16,COCCn1c(SC2CCCCC2=O)nnc1-c1ccncc1 (centres unmarked),18.9
17,CCCOc1ccc(N2C(=O)CC(N3CCCC(C(=O)N4CCCC4)C3)C2=O)cc1 (centres unmarked),4.63
18,COc1ccc(S(=O)(=O)N2CCOC2CNC(=O)C(=O)NCc2ccncc2)cc1OC (centres unmarked),10.3
19,CCN(CC)C(=O)Cn1cnc2sc(C(=O)N3CCN(c4ccc(F)cc4)CC3)c(C)c2c1=O,-37
20,Cc1c(C)c2ccc(OCC(=O)NC3CCN(Cc4ccccc4)CC3)c(C)c2oc1=O,-42.7
21,CC(C)(C)c1ccc(C2CC2C(=O)N/N=C\c2cc3ccccc3nc2Cl)cc1 (centres unmarked),0.599
22,CC(C)N=C(NC#N)SCc1ccc(F)cc1,-2.23
23,O=C(/C=C/c1ccc([N+](=O)[O-])s1)N1CCCC1,-52.9

row,Structure (SMILES),"hERG current change (%, negative = inhibition) at 10uM [%]"
1,COc1ccc(CCN2C(=O)CC(C(N)=O)SC2=Nc2ccccc2)cc1 (centres unmarked),-26.2
2,COC(=O)c1c(NC(=O)CN2CCC3(O)CCCCC3C2c2ccc(OC)cc2OC)sc(C)c1C (centres unmarked),18.3
3,CCOC(=O)N1CCN(C(=O)c2oc3ccc(S(=O)(=O)N4CCOCC4)cc3c2C)CC1,-3.71
4,CC1(C(=O)NCc2cccnc2)CCC(=O)N1CCc1ccccc1 (centres unmarked),-10.9
5,OCc1ccccc1OCCCOc1cccc2cccnc12,-3.4
6,CNC(=O)c1[nH]cnc1C(=O)Nc1ccccc1,10.3
7,CCc1ccc2oc(-c3cc(N)cc(C)c3O)nc2c1,7.4
8,CCn1c2ccccc2c2nnc(SCC(=O)NC3CCS(=O)(=O)C3)nc21 (centres unmarked),8.22
9,O=C(c1c(F)cccc1F)N(C1CCCCC1)C1CCCCC1,-8.71
10,CS(=O)(=O)N1CCCC(C(=O)NCCc2ccc(Cl)cc2)C1 (centres unmarked),-24.1
11,COc1ccc(OCc2nnc3n2N=C(c2ccc(OC)cc2)CS3)cc1,-26.8
12,CN(C)/C=N/C(=S)Nc1ccc(F)cc1,14.4
13,CCN(CC)S(=O)(=O)c1cccc(-c2nnc(SCC(=O)NC)n2CCc2ccccc2)c1,-27.3
14,CC(C)CN1CCC(C(=O)N2CCN(c3ccccc3F)CC2)CC1,-32
15,Cc1cc(C(=O)O)cc(S(=O)(=O)Nc2ccccc2C(=O)NC(C)c2ccccc2)c1C (centres unmarked),18.8
16,O=C(c1ccc(Br)cc1)N1CCCC(c2nc(-c3cccs3)no2)C1 (centres unmarked),-16.1
17,NC(=O)COC(=O)CC12CC3CC(CC(Br)(C3)C1)C2,24.6
18,CC(C)(Oc1ccc(Br)cc1Cl)C(=O)Nc1ccon1,-1.6
19,C=CCOc1ccc(/C=N/Nc2ccccn2)cc1OC,17.2
20,Cc1cc(-c2nn(-c3ccccc3F)cc2CN2CCCC(C(N)=O)C2)c(C)s1 (centres unmarked),-20.5
21,CC/C(Cc1ccccc1)=N\NC(=O)c1cc([N+](=O)[O-])cc([N+](=O)[O-])c1,-42.8
22,COc1cccc2cc(CC(=O)c3cc(C)ccc3C)c(=O)oc12,-7
23,CC(C)N(C(=O)COC(=O)[C@H](C)NC(=O)c1ccco1)c1ccccc1,19.6

row,Structure (SMILES),"hERG current change (%, negative = inhibition) at 10uM [%]"
1,CCCCNS(=O)(=O)c1ccc2c(c1)oc(=O)n2CC(=O)OCC,5.06
2,Cc1cccc(Nc2nc(NCc3ccco3)nc(N)c2[N+](=O)[O-])c1,10.6
3,CCCN(CCC)CC(=O)NCC1(c2ccccc2)CCOCC1.Cl,-7.83
4,CCC(c1nnnn1Cc1ccc2c(c1)OCO2)N1CCN(c2ccc(OC)cc2)CC1 (centres unmarked),-44.6
5,O=C(Oc1ccc(C(=S)N2CCOCC2)cc1Br)c1ccccc1F,17.8
6,CCCCN(C(=O)c1ccc(-c2ccc(Cl)cc2)o1)c1c(N)n(CCC)c(=O)[nH]c1=O,0.856
7,COc1cccc(/C=C(\C#N)C(=O)NC2CCS(=O)(=O)C2)c1 (centres unmarked),1.19
8,COc1ccc(Cl)cc1C(=O)OCC(=O)N(CC(C)C)c1c(N)n(Cc2ccccc2)c(=O)[nH]c1=O,-11.2
9,CCN1CC2([N+](=O)[O-])CC=C(OC)C([N+](=O)[O-])(C1)C2 (centres unmarked),6.62
10,COc1cc(/C=C/C(=O)OCC(=O)N2CCN(S(=O)(=O)c3ccc(C)cc3C)CC2)ccc1O,8.3
11,CC(=O)c1ccc(-n2nncc2C(C)(C)C)cc1,-3.77
12,C/C(CC1CC(C)(C)OC1=O)=N\NC(N)=S (centres unmarked),2.87
13,COc1ccc(CN(CCN(C)C)Cc2ccccc2)c(OC)c1.O=C(O)C(=O)O,-46.1
14,CCOC(=O)C1C(C(=O)NN)C1C(=O)Nc1ccccc1 (centres unmarked),18
15,Fc1cc(F)c(NC(=S)N2CCOCC2)c(F)c1,16.4
16,CCCCc1nc2n[nH]c(N)c2c2c1CCC2,-13.1
17,O=C(Cc1cccc2ccccc12)Nc1c(F)cccc1F,12.6
18,C=CCN(c1ccccc1)S(=O)(=O)c1cccc(C(=O)NCC(c2cccs2)N2CCOCC2)c1 (centres unmarked),-18.7
19,Cc1ccc2[nH]cc(C(=O)NCc3cccs3)c(=O)c2c1,-13.7
20,NC(=O)C1CCN(C(=O)c2ccc(F)c(S(=O)(=O)N3CCOCC3)c2)CC1,-0.931
21,C/C(=N\NC(N)=S)c1cccnc1,2.44
22,COCCOC(=O)c1c(C)oc2ccc(NS(=O)(=O)c3cccs3)cc12,-51.4
23,COc1ccc(CNC(=O)CCS(=O)(=O)c2cc3c(cc2Cl)NC(=O)CO3)cc1,-9.24

row,Structure (SMILES),"hERG current change (%, negative = inhibition) at 10uM [%]"
1,COc1cc(C(=O)NCc2nnc(SCC(=O)Nc3cccc(C)c3)o2)cc(OC)c1OC,-8.21
2,COCCNCC(=O)NCC12CC3CC(CC(C3)C1)C2.Cl,5.25
3,O=C(c1ccc(SCc2cccc(Br)c2)c([N+](=O)[O-])c1)N1CCN(c2ccccn2)CC1,15
4,Cc1cc(C)nc(N2CCC(C(=O)NCc3cccs3)CC2)n1,-5.51
5,Cn1c(-c2cccc([N+](=O)[O-])c2)cnc1NCc1cccc(F)c1.O=C(O)C(=O)O,-54.1
6,C/C(=N/NC(=O)c1ccc2c(c1)OCO2)c1ccc(Br)s1,-1.53
7,O=S(=O)(CCn1cccc1)CCn1cccc1,17.4
8,COc1cccc(CN2CC(C(=O)N(C)CCc3ccccc3)CCC2=O)c1 (centres unmarked),2.65
9,CCCOP(=O)(c1ccc(N(C)C)cc1)C(O)c1cc(OC)c(OC)c(OC)c1 (centres unmarked),3.99
10,Cc1ccc(-c2cnc(C3CC3)o2)cc1S(=O)(=O)Nc1ccccc1,-1.57
11,Cc1ccc(C)c(NC(=O)CCN2CCCC(C)C2)c1 (centres unmarked),9.96
12,O=[N+]([O-])c1cccc2c3c([nH]c12)CCCC3,17.4
13,CN(C)C(CNC(=O)CSc1nc2sc3c(c2c(=O)n1C)CCC3)c1ccccc1 (centres unmarked),-3.25
14,CC(C)C(=O)Nc1ccc(-c2ccc3nncn3n2)cc1,8.98
15,CCOc1cc(CNc2ccc(O)cc2)ccc1OCc1ccc(Cl)cc1Cl,0.771
16,C/C=C/C(=O)N1c2ccccc2C(C)=CC1(C)C,3.41
17,COc1ccc(-c2nnc3sc(-c4ccco4)nn23)cc1OC,3.81
18,O=C(CN1CCCCCC1)Nc1ccc(Cl)cn1,1.45
19,CC(C)NC(=O)c1sc(=S)n2c1[nH]c(=O)c1ccc(C(=O)NCCc3ccc(Cl)cc3)cc12,14.1
20,CC(C)(C)CN1CCC(Oc2cccc(C(=O)NCCCOc3cccnc3)c2)CC1,-12
